Test results reported in a compilation of properties of binary mixtures (doi:10.1021/acs.jced.9b00364).
The densities may have been worked out from excess volumes.

Assay: xn = mol fraction of the nth substance listed
Details: 100 kPa

CCOCCO + CNCCO
x2 = 0
Details	mass density [kg/m3]
293.15 K	929.5
298.15 K	925
303.15 K	920.5
318.15 K	906.6
323.15 K	901.9
328.15 K	897.2
333.15 K	892.4
343.15 K	882.7

CNCCO + COCCO
mass density [kg/m3]
Details	x1 = 0.1012	x1 = 0.3027	x1 = 0.4031	x1 = 0.5033	x1 = 0.7027	x1 = 0.9012	x1 = 1
293.15 K	–	957.8	955	952.4	947	941.2	938.2
303.15 K	954.2	–	948.6	946.1	940.9	935.3	932.3
308.15 K	949.7	946.9	944.3	941.9	936.9	931.3	928.4
313.15 K	–	942.5	940	937.7	932.7	927.3	924.5
318.15 K	–	938.1	935.7	933.4	–	923.3	920.5
323.15 K	935.8	933.6	931.3	929.1	924.4	919.3	916.5
328.15 K	931.2	929.1	926.8	924.7	920.2	915.2	912.5
333.15 K	926.4	924.6	922.4	920.3	916	911.1	908.5
338.15 K	921.7	920	917.9	915.9	–	907	904.4
343.15 K	916.9	915.4	–	911.4	907.4	902.8	900.3
348.15 K	–	–	908.7	906.9	903.1	898.6	896.2
353.15 K	907.1	906	904.1	902.4	–	894.4	–

CNCCO + CCOCCO
mass density [kg/m3]
Details	x1 = 0.1176	x1 = 0.3396	x1 = 0.4444	x1 = 0.5454	x1 = 0.7368	x1 = 0.9152	x1 = 1
293.15 K	931.6	934.8	936	–	938.8	940.1	940.1
298.15 K	927.2	–	931.8	932.9	934.8	936.2	–
303.15 K	922.7	926.2	927.6	928.8	–	932.2	932.3
308.15 K	–	921.9	923.3	924.6	926.7	928.2	928.4
313.15 K	–	917.6	919.1	920.4	922.6	–	–
318.15 K	909.2	–	914.7	–	918.5	920.3	920.5
323.15 K	904.6	–	910.4	–	914.3	916.2	–
328.15 K	–	904.3	906	907.5	–	912.2	912.5
333.15 K	895.3	899.8	901.6	903.2	905.9	908.1	908.5
338.15 K	890.5	–	897.1	898.8	901.7	904	904.4
343.15 K	885.8	890.7	892.6	894.4	897.4	899.8	900.3
348.15 K	881	–	888.1	889.9	893.1	–	–
353.15 K	876.1	881.4	883.5	–	–	891.4	892.1
